Patent publication US8633183B2 (priority 2010, dated 2014)
pEC50: −log10 of the molar value. Where two headings read alike, the source gives them in different places.

Tested on: PC3 (human prostate carcinoma cell line) cells
Test: cells
Details: for EC50: PC-3, 72 h, read-out: EC50 PC3 [nM]; for pEC50: read-out: EC50 PC3

`CCc1ncnc(-c2ccc(C(=O)NC)c(Cl)c2)c1C#Cc1ccc(C)nc1` [Example C-16] showed an EC50 of 627 nM.
In the case of `CCc1ncnc(-c2ccc(C(=O)N3CCN(C4CCCC4)CC3)c(OC)c2)c1C#Cc1ccc(N)nc1` [Example D-186], the pEC50 was 6.72.
With `CCc1ncnc(-c2ccc(C(=O)NCC3(C)COC3)c(Cl)c2)c1C#Cc1ccc(N)nc1` [Example D-159] the pEC50 was 7.42.
Molecule `CCc1ncnc(-c2ccc(C(=O)N3CCN(c4ccccc4)CC3)c(Cl)c2)c1C#Cc1ccc(N)nc1` [Example D-39] has a pEC50 of 7.17.
For `CCc1ncnc(-c2ccc(C(=O)NCC3CCN(C)CC3)c(F)c2)c1C#Cc1ccc(N)nc1` [Example D-77], the pEC50 was 7.10.
Work on `CCc1ncnc(-c2ccc(C(=O)N3CCN(Cc4ccccc4)CC3)c(OC)c2)c1C#Cc1ccc(N)nc1` [Example D-187] yielded a pEC50 of 6.53.
`CCc1ncnc(-c2ccc(C(=O)N3CCC(C(C)(C)O)CC3)c(F)c2)c1C#Cc1ccc(N)nc1` [Example D-79] was tested, and the pEC50 was 7.48.
Molecule `CCc1ncnc(-c2ccc(C(=O)N3CCN(Cc4ccccc4)CC3)c(F)c2)c1C#Cc1ccc(N)nc1C` [Example D-24] has a pEC50 of 7.28.
`CCc1ncnc(-c2ccc(C(=O)N3CCNCC3)c(Cl)c2)c1C#Cc1ccc(N)nc1` [Example D-152] was tested, and the pEC50 was 7.14.
Molecule `CCc1ncnc(-c2ccc(C(=O)N(C)C3CCN(C)CC3)c(F)c2)c1C#Cc1ccc(N)nc1` [Example D-3] has a pEC50 of 6.66.
Molecule `Cc1ncnc(-c2cc(Cl)cc(C(=O)N(C)C)c2)c1C#Cc1ccc(N)nc1` [Example C-38] has an EC50 of 245 nM.
`CCc1ncnc(-c2ccc(C(=O)NC3CC(N4CCCCC4)C3)c(F)c2)c1C#Cc1ccc(N)nc1` [Example D-207] was tested, and the pEC50 was 7.15.
For `CCc1ncnc(-c2ccc(C(=O)N3CCC(O)(CC)CC3)c(F)c2)c1C#Cc1ccc(N)nc1` [Example D-125], the pEC50 was 7.03.
Work on `CCc1ncnc(-c2ccc(C(=O)N3CCN(CC4CC4)CC3)c(F)c2)c1C#Cc1ccc(N)nc1` [Example D-106] yielded a pEC50 of 7.38.
Work on `CCc1ncnc(-c2ccc(C(=O)N3CCCCO3)cc2)c1C#Cc1ccc(N)nc1` [Example D-223] yielded a pEC50 of 7.07.
Work on `CCc1ncnc(-c2ccc(C(=O)N3CCN4CCCCC4C3)c(F)c2)c1C#Cc1ccc(N)nc1` [Example D-87] yielded a pEC50 of 7.27.
With `Cc1ncnc(-c2ccc(C(=O)N(C)C)c(F)c2)c1C#Cc1ccc(N)nc1` [Example C-11] the EC50 was 67 nM.
In the case of `CCc1ncnc(-c2ccc(C(=O)N3CCN(C)C(=O)C3)c(F)c2)c1C#Cc1ccc(N)nc1` [Example D-133], the pEC50 was 7.57.
Work on `CCc1ncnc(-c2ccc(C(=O)N3CCN(C4CCOCC4)CC3)c(F)c2)c1C#Cc1ccc(N)nc1` [Example D-84] yielded a pEC50 of 7.77.
`CCc1ncnc(-c2ccc(C(=O)N3CCC(N4CCCC4)C3)c(F)c2)c1C#Cc1ccc(N)nc1` [Example D-235] was tested, and the pEC50 was 7.11.
Work on `CCc1ncnc(-c2ccc(C(=O)N3CCN(c4ccccn4)CC3)c(F)c2)c1C#Cc1ccc(N)nc1` [Example D-92] yielded a pEC50 of 7.12.
`CCc1ncnc(-c2ccc(C(=O)N3CCN(C(C)(C)C)CC3)c(OC)c2)c1C#Cc1ccc(N)nc1` [Example D-48] gave a pEC50 of 7.24.
Work on `COc1ccc(-c2ncnc(C)c2C#Cc2ccc(N)nc2)cn1` [Example C-23] yielded an EC50 of 245 nM.
For `CCc1ncnc(-c2ccc(C(=O)N(C)OC)cc2)c1C#Cc1ccc(N)nc1` [Example D-225], the pEC50 was 7.18.
With `CCc1ncnc(-c2ccc(C(=O)N3CCC(N4CCOCC4)CC3)c(F)c2)c1C#Cc1ccc(N)nc1` [Example D-63] the pEC50 was 7.52.
`CCCCN1CCN(C(=O)c2ccc(-c3ncnc(C)c3C#Cc3ccc(N)nc3)cc2)CC1` [Example D-190] showed a pEC50 of 7.21.
Work on `CCc1ncnc(-c2ccc(C(=O)N(C)C)c(F)c2)c1C#Cc1ccc(C)nc1` [Example C-19] yielded an EC50 of 506 nM.
Work on `CCc1ncnc(-c2ccc(C(=O)N3CCCC(O)C3)c(OC)c2)c1C#Cc1ccc(N)nc1` [Example D-164] yielded a pEC50 of 7.04.
For `CCc1ncnc(-c2ccc(Cl)c(C(=O)N(C)C)c2)c1C#Cc1ccc(N)nc1` [Example C-45, 4-[5-(6-amino-pyridin-3-ylethynyl)-6-methyl-pyrimidin-4-yl]-2-fluoro benzoic acid methyl ester], the EC50 was 90 nM.
`CCCCN1CCN(C(=O)c2ccc(-c3ncnc(CC)c3C#Cc3ccc(N)nc3)cc2Cl)CC1` [Example D-29] was tested, and the pEC50 was 7.25.
Work on `Cc1ncnc(-c2ccc(C(=O)N3CC(O)CO3)c(Cl)c2)c1C#Cc1ccc(N)nc1` [Example D-232] yielded a pEC50 of 7.00.
`CCc1ncnc(-c2ccc(C(=O)N3CCN(S(=O)(=O)CC)CC3)c(F)c2)c1C#Cc1ccc(N)nc1` [Example D-89] showed a pEC50 of 7.38.
`CCc1ncnc(-c2ccc(C(=O)N(C)C3CCS(=O)(=O)C3)c(OC)c2)c1C#Cc1ccc(N)nc1` [Example D-179] showed a pEC50 of 6.87.
`CCc1ncnc(-c2ccc(C(=O)N3CCN(C(C)=O)CC3)c(F)c2)c1C#Cc1ccc(N)nc1` [Example D-90] was tested, and the pEC50 was 7.32.
`CCc1ncnc(-c2ccccc2)c1C#Cc1ccc(N)nc1` [Example C-13] gave an EC50 of 170 nM.
With `CCc1ncnc(-c2ccc(C(=O)NC3CC(N4CCC(N5CCCC5)CC4)C3)c(F)c2)c1C#Cc1ccc(N)nc1` [Example D-208] the pEC50 was 6.93.
Work on `CCc1ncnc(-c2ccc(C(=O)N3CCN(CC)CC3)c(OC)c2)c1C#Cc1ccc(N)nc1` [Example D-53] yielded a pEC50 of 7.17.
With `CNC(=O)c1cc(-c2ncnc(C)c2C#Cc2ccc(N)nc2)ccc1F` [Example C-43] the EC50 was 463 nM.
`CCc1ncnc(-c2ccc(C(=O)N3CCN(CC(F)(F)F)CC3)c(OC)c2)c1C#Cc1ccc(N)nc1` [Example D-54] was tested, and the pEC50 was 7.42.
For `CCc1ncnc(-c2ccc(C(=O)N3CCN(C4CCN(C)CC4)CC3)c(F)c2)c1C#Cc1ccc(N)nc1` [Example D-64], the pEC50 was 7.15.
`CCc1ncnc(-c2ccc(C(=O)N3CCOC(C)(C)C3)c(F)c2)c1C#Cc1ccc(N)nc1` [Example D-120] was tested, and the pEC50 was 6.70.
`CCc1ncnc(-c2ccc(C(=O)N3CCN(C)CC3)c(F)c2)c1C#Cc1ccc(N)nc1` [Example D-8] showed a pEC50 of 7.31.
Work on `CCc1ncnc(-c2ccc(C(=O)N3CCNC(=O)C3)c(OC)c2)c1C#Cc1ccc(N)nc1` [Example D-59] yielded a pEC50 of 6.61.
For `Cc1ncnc(-c2ccc(C(=O)N3CCN(C4CCS(=O)(=O)C4)CC3)cc2)c1C#Cc1ccc(N)nc1` [Example D-192], the pEC50 was 6.85.
Molecule `Cc1ncnc(-c2ccc(C(=O)N3CCN(C4CCOCC4)CC3)cc2)c1C#Cc1ccc(N)nc1` [Example D-193] has a pEC50 of 7.16.
`CCCCN1CCN(C(=O)c2ccc(-c3ncnc(CC)c3C#Cc3ccc(N)nc3)cc2F)CC1` [Example D-83] was tested, and the pEC50 was 7.44.
With `CCc1ncnc(-c2ccnc(C)c2)c1C#Cc1ccc(N)nc1` [Example C-27] the EC50 was 138 nM.
In the case of `CCc1ncnc(-c2ccc(C(=O)NCC3(C)COC3)c(F)c2)c1C#Cc1ccc(N)nc1` [Example D-214], the pEC50 was 7.35.
With `CCc1ncnc(-c2ccc(C(=O)N3CCC(N4CCN(C5CCN(C)CC5)CC4)CC3)c(F)c2)c1C#Cc1ccc(N)nc1` [Example D-67] the pEC50 was 6.98.
For `CCc1ncnc(-c2ccc(C(=O)NCCOC)c(Cl)c2)c1C#Cc1ccc(N)nc1` [Example D-33], the pEC50 was 7.35.
`CCc1ncnc(-c2ccc(C(=O)N3CCN(C)C(C)(C)C3)c(F)c2)c1C#Cc1ccc(N)nc1` [Example D-127] gave a pEC50 of 7.10.
In the case of `Cc1ncnc(-c2ccc(Cl)c(C(=O)N3CCCCC3)c2)c1C#Cc1ccc(N)nc1` [Example C-42], the EC50 was 503 nM.
Molecule `CCc1ncnc(-c2ccc(C(=O)N3CCC(N(C)C)CC3)c(OC)c2)c1C#Cc1ccc(N)nc1` [Example D-177] has a pEC50 of 6.55.
Work on `CCOC(=O)N1CCN(C(=O)c2ccc(-c3ncnc(CC)c3C#Cc3ccc(N)nc3)cc2OC)CC1` [Example D-180] yielded a pEC50 of 6.92.
For `CCc1ncnc(-c2ccc(C(=O)N3CCN(C)CC3)nc2)c1C#Cc1ccc(N)nc1` [Example D-240], the pEC50 was 6.61.
`Cc1ncnc(-c2ccc(C(=O)N3CCN(CCO)CC3)cc2)c1C#Cc1ccc(N)nc1` [Example D-194] showed a pEC50 of 6.87.
With `CCc1ncnc(-c2ccc(C(=O)N3CCN(CCN(C)C)CC3)c(F)c2)c1C#Cc1ccc(N)nc1` [Example D-99] the pEC50 was 7.11.
Molecule `Cc1ncnc(-c2ccc(C(=O)N3CCCO3)c(Cl)c2)c1C#Cc1ccc(N)nc1` [Example D-230] has a pEC50 of 7.21.
`CCc1ncnc(-c2ccc(C(=O)N(C)CCCOC)c(F)c2)c1C#Cc1ccc(N)nc1` [Example D-1] gave a pEC50 of 7.11.
For `CCc1ncnc(-c2ccc(C(=O)N(C)O)c(Cl)c2)c1C#Cc1ccc(N)nc1` [Example D-153], the pEC50 was 7.26.
Molecule `CCc1ncnc(-c2ccc(C(=O)N3CCN(CC(=O)N(C)C)CC3)c(F)c2)c1C#Cc1ccc(N)nc1C` [Example D-23] has a pEC50 of 7.39.
`CCc1ncnc(-c2ccc(C(=O)N3CCCC(O)C3)c(Cl)c2)c1C#Cc1ccc(N)nc1` [Example D-147] showed a pEC50 of 7.48.
`CCc1ncnc(-c2ccc(C(=O)N3CCN(C)C(C)C3)c(F)c2)c1C#Cc1ccc(N)nc1` [Example D-128] gave a pEC50 of 7.19.
Molecule `CCc1ncnc(-c2ccc(C(=O)N(C)CCCOC)c(Cl)c2)c1C#Cc1ccc(N)nc1` [Example D-30] has a pEC50 of 7.15.
`CCc1ncnc(-c2ccc(C(=O)N3CCN(C4CC4)CC3)c(F)c2)c1C#Cc1ccc(N)nc1` [Example D-121] showed a pEC50 of 7.77.
With `CCc1ncnc(-c2ccc(C(=O)N3CCCC(O)C3)c(F)c2)c1C#Cc1ccc(N)nc1` [Example D-110] the pEC50 was 7.52.
`Cc1ncnc(-c2ccc(F)c(C(=O)N3CCOCC3)c2)c1C#Cc1ccc(N)nc1` [Example C-39] gave an EC50 of 255 nM.
`CCc1ncnc(-c2ccc(C(=O)N3CCN(S(=O)(=O)CC)CC3)c(F)c2)c1C#Cc1ccc(N)nc1C` [Example D-19] showed a pEC50 of 7.52.
`CCc1ncnc(-c2ccc(C(=O)N(C)CC3CCCN(C)C3)c(F)c2)c1C#Cc1ccc(N)nc1` [Example D-73] gave a pEC50 of 6.75.
`CCc1ncnc(-c2ccc(C(=O)N3CCN(C(C)C)CC3)c(F)c2)c1C#Cc1ccc(N)nc1` [Example D-122] gave a pEC50 of 7.82.
`CCc1ncnc(-c2ccc(S(C)(=O)=O)cc2)c1C#Cc1ccc(C)nc1` [Example C-17] showed an EC50 of 603 nM.
`CCc1ncnc(-c2ccc(C(=O)NC)c(F)c2)c1C#Cc1ccc(N)nc1` [Example D-5] gave a pEC50 of 6.90.
`CCc1ncnc(-c2ccc(C(=O)N3CCCOCC3)c(Cl)c2)c1C#Cc1ccc(N)nc1` [Example D-157] was tested, and the pEC50 was 7.37.
With `CCc1ncnc(-c2ccc(C(=O)N3CCN(CC(F)F)CC3)c(F)c2)c1C#Cc1ccc(N)nc1` [Example D-61] the pEC50 was 7.66.
`CCc1ncnc(-c2ccc(C(=O)N3CCN(CC4CCCCC4)CC3)c(F)c2)c1C#Cc1ccc(N)nc1C` [Example D-22] gave a pEC50 of 6.45.
